Experimental data published in PubChem BioAssay AID662 (National Center for Advancing Translational Sciences (NCATS), 2007).
In all, about 71,000 compounds went through this assay and about 1,800 (2.5%) were called active. Inconclusive results, whose numbers are uncertain, are shown with a selection of clear calls. The call rests on the fitted dose curve; in most records, active means well fitted activation curve with a large enough effect in the signal ratio, with a control signal flat (not every such curve was filed as active); inconclusive means small, poorly fitted or top-dose-only effect, or effect the other way, or a change in a side signal; inactive means flat fitted curve, though single readings scatter; the % refers to the signal ratio. Potencies of inconclusive entries are doubtful fits and often do not repeat.

experiment: Cell signaling CRE-BLA (Fsk stim); settings: CHO CRE-bla reporter (cAMP response element driving beta-lactamase), forskolin EC10, beta-lactamase ratio; activity change, negative = inhibition: at 38.2 µM (top of the series) unless noted; on activity change, negative = inhibition: % of control where 0% means no effect
In short: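 AC50 values, positive or negative, reflect shifts in EC10 NKH 477-induced CRE-bla reporter activity in CHO cells. Incubation lasted 3 h at 37 °C before CCF4 substrate (2 h, room temperature) and ratiometric 460/530 nm reading.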
Potency means the concentration at half of the fitted maximal effect; tags describe the fitted curve by direction and shape.

Row | SMILES | Potency | activity change, negative = inhibition
1 | COc1ccc(C2(C(=O)N3CCOCC3)CCOCC2)cc1OC | inconclusive: 12.6 µM [rising, partial curve] | –
2 | CCOc1ccc(OCC)c(NC(=O)C2COc3ccccc3O2)c1 (stereo not given) | – | inactive: 28%
3 | Cn1c(=O)[nH]c(=O)c2c1nc(Br)n2Cc1ccccc1F | – | inconclusive: 17.8%
4 | Cc1nc2cncnc2n(-c2ccccc2)c1=O | – | inactive: 3.57%
5 | CCn1c(SCC(=O)c2ccc3c(c2)OCCO3)nnc1C(C)C | – | inactive: -8.37%
6 | Cc1ccc2nc(SCC(=O)O)nc(C)c2c1 | – | inactive: 7.02%
7 | CCOC(=O)N1CCC(NC(=O)C2CCN(c3nc(-c4ccc(OC)cc4)no3)CC2)CC1 | – | inactive: 16.1%
8 | COCc1cc(C)nc(SCC(=O)Nc2ccc3c(c2)OCO3)c1C#N | inconclusive: 10 µM [rising, single point] | –
9 | Nn1c(SCC(=O)NC2CCCc3ccccc32)nnc1-c1cccs1 (stereo not given) | – | inconclusive: 22.9%
10 | N[C@@H]1[C@@H]2[C@@H]3C[C@H]4N(CC[C@@]14C(=O)C(=O)O)CC3=CCO[C@@H]2CC(=O)O | – | inactive: -3.6% [at 7.6 µM]
11 | CCN(CC)c1ccc(NC(=O)c2nc3nc(C)cc(C(F)F)n3n2)cc1 | – | inactive: -0.533%
12 | CCC(NC(=O)c1ccccc1O)c1ccccc1 (stereo not given) | – | inactive: -1.54%
13 | CN(C)/C=C1\C=C(c2ccccc2)OC1=O | – | inconclusive: 3.51%
14 | COc1ccc2nc3oc(C(=O)NC4CCN(Cc5ccccc5)CC4)cc3cc2c1 | inconclusive: 10 µM [rising, partial curve] | –
15 | CCOC(=O)C1=C(c2ccccc2)NC(SC)=C(C#N)C1c1ccco1 (stereo not given) | inconclusive: 15.8 µM [rising, partial curve] | –
16 | CN(C(=O)c1ccc(Cl)cc1)C1=CCCCC1CCC#N (stereo not given) | – | inconclusive: -18.1%
17 | CC(C)(C)NC(=O)COC(=O)c1ccc(O)cc1 | – | inconclusive: -2.52%
18 | COc1ccc(-c2c(C#N)c(N)nc3c2CCCC3)cc1OC | – | inactive: 20%
19 | CCC(C)NC(=O)Cn1cnc2sc(C)cc2c1=O (stereo not given) | – | inconclusive: -3.62%
20 | OC(COc1ccc2cc(Br)ccc2c1)CN1CCN(c2ccccn2)CC1 (stereo not given) | – | inactive: -4.12%
21 | Cc1cc(C)nc(N2CCCC(C(=O)NCc3cccs3)C2)n1 (stereo not given) | – | inconclusive: 28.9%
22 | COC(=O)c1cc(COc2ccc3oc(C)c(C(=O)OC)c3c2)c(C)o1 | active: 5.01 µM | –

Row | SMILES | Potency | activity change, negative = inhibition
23 | CCCn1c(SCC(=O)c2cc(OC)ccc2OC)nnc1C(C)C | – | inactive: 12.1%
24 | Cc1cccc(C(=O)NCN2CCN(c3ccccc3C#N)CC2)c1 | – | inconclusive: -13%
25 | N#Cc1cc2sc3nnc(-c4ccncc4)n3c2cc1C#N | – | inactive: 13.6%
26 | CCN(Cc1cc2cccc(C)c2[nH]c1=O)C(=O)c1ccccc1OC | inconclusive: 12.6 µM [rising, single point] | –
27 | COc1cccc(Cn2c(=O)cnc3cnc(N(C)C)nc32)c1 | active: 6.31 µM | –
28 | Cc1ccc([N+](=O)[O-])c(N)c1 | – | inactive: -11.2%
29 | Cc1nc2cnc(N3CCOCC3)nc2n(C[C@H]2CCCO2)c1=O | inconclusive: 20 µM [rising, single point] | –
30 | CCC(NC(=O)OC(C)(C)C)C(=O)Oc1ccc2c3c(c(=O)oc2c1)CCC3 (stereo not given) | inconclusive: 15.8 µM [rising, single point] | –
31 | CCSc1nc(N2CCOCC2)c2ccccc2n1 | inconclusive: 10 µM [rising, partial curve] | –
32 | CN(C)CCNC(=O)c1cc2c(=O)n(C)c3ccccc3c2n1C | inconclusive: 10 µM [rising, single point] | –
33 | CCCCC(CC)C(=O)Nc1ccccc1C(=O)NC(C)C (stereo not given) | inconclusive: 0.0316 µM [rising, full curve, poor fit] | –
34 | COc1ccc2cc(C(=O)OC(C)C)sc(=O)c2c1OC | inconclusive: 12.6 µM [rising, partial curve] | –
35 | CCc1nc(SCC(=O)N2CCc3ccccc32)c2oc3ccccc3c2n1 | – | inactive: 1.83%
36 | CCOC(=O)N1CCC(NC(=O)c2ccc3c(c2)N(CC)CCS3)CC1 | – | inactive: -3.1%
37 | CCn1c(=O)c(=O)[nH]c2cc(C(=O)Nc3ccc(S(=O)(=O)N4CCCC4)cc3)ccc21 | – | inactive: 1.6%
38 | CCC(C)n1c(C)nc2c(c1=O)c1nc3ccccc3nc1n2-c1ccc2c(c1)OCCO2 (stereo not given) | – | inconclusive: 26.7%
39 | O=C(c1cnccn1)N(c1ccccc1)C1(C(=O)NC2CCCCC2)CCCCC1 | – | inconclusive: -7.23%
40 | O=C(Nc1ccc(Cl)cc1)NC1CCS(=O)(=O)C1 (stereo not given) | – | inconclusive: 13.7% [at 7.6 µM]
41 | Cc1ccc(C(CC(=O)O)Nc2nc(N3CCCCC3)nc(N3CCCCC3)n2)cc1 (stereo not given) | – | inconclusive: 8.81%
42 | O=C1C2C3CCCC3=C3CCCC3C2C(=O)N1c1ccc(Cl)cc1 (stereo not given) | – | inactive: -4.73%
43 | COc1ccc(NC(=O)C2C(=O)NC3(C)CC2c2ccccc2O3)cc1 (stereo not given) | – | inconclusive: 18.1%
44 | CCOc1ccc2nc(NCCNC(=O)C3CC3)c(C)cc2c1 | – | inactive: 8.63%

Row | SMILES | Potency | activity change, negative = inhibition
45 | O=C(NC1CCCC1)c1sc(=S)n2c1[nH]c(=O)c1ccccc12 | – | inconclusive: 17.6%
46 | Cc1cc(C)n2cc(CSc3nnc(-c4ccccc4)o3)nc2n1 | active: 12.6 µM | –
47 | OCCNc1ncnc2ccc(Br)cc12 | – | inconclusive: -15.9%
48 | O=C1CCCC2=C1C(c1ccccc1)C1=C(CCCC1=O)O2 | – | inconclusive: 7.89% [at 7.6 µM]
49 | COc1ccccc1CNc1ncnc2ccc(-c3ccc(C(=O)N(C)C)cc3)cc12 | inconclusive: 12.6 µM [rising, partial curve] | –
50 | CC(=O)C1=C(O)C(=O)N(CCc2c[nH]c3ccccc23)C1c1ccco1 (stereo not given) | – | inconclusive: 28% [cytotoxic]
51 | CC(C)(O)C1=NOC(c2ccccc2)C1 (stereo not given) | – | inconclusive: 17.4% [at 7.6 µM]
52 | COc1ccccc1-c1cc(C(=O)N2CCN(c3ccccc3OC)CC2)no1 | – | inactive: -1.52%
53 | CCCCCCN1C(=O)C(O)=C(C(C)=O)C1c1ccc(Cl)cc1 (stereo not given) | inconclusive: 1 µM [rising, single point] | –
54 | CCOC(=O)c1c(-c2cccs2)csc1NC(=O)CN1CC(C)OC(C)C1 (stereo not given) | active: 2.51 µM | –
55 | COc1ccc(OC)c(C2CC(=O)c3c([nH]c(C(=O)OC(C)C)c3C)C2)c1 (stereo not given) | active: 3.16 µM | –
56 | Cc1cc(C(=O)Nc2sc3c(c2C#N)CCC(C(C)(C)C)C3)no1 (stereo not given) | inconclusive: 2.51 µM [rising, full curve, poor fit] | –
57 | CS(=O)(=O)Nc1cccc(-c2cncnc2-n2ccnc2)c1 | – | inconclusive: -10.9%
58 | CCOc1ccc(C(=O)Nc2cccc(-c3nc4cccnc4o3)c2)cc1Cl | – | inactive: 12.3%
59 | Cc1cc(C)c2c(=O)n(CC(=O)NCCCN3CCN(c4ccccc4F)CC3)sc2n1 | – | inconclusive: -18.8%
60 | CCc1nnc(NC(=O)CCC(=O)N2CCN(CCOc3ccc(C)cc3)CC2)s1 | inconclusive: 15.8 µM [rising, partial curve] | –
61 | CC(C)(C)n1ncc2c(=O)n(CC(=O)c3ccc(Cl)cc3)cnc21 | – | inconclusive: 18.2%
62 | COCCCn1c(SCC(=O)Nc2ccc(C(C)=O)cc2)nc2ccccc2c1=O | inconclusive: 10 µM [rising, partial curve] | –
63 | COc1cccc(Cn2c(=O)c(CCc3ccccc3)nc3cnc(N4CCOCC4)nc32)c1 | active: 2 µM | –
64 | COc1ccc(CCNC(=O)Cn2c(=O)n(Cc3ccco3)c(=O)c3ccc(Cl)cc32)cc1OC | – | inconclusive: 22.1%
65 | Cc1ccc2c(c1)C(N1CCN(C)CC1)=Nc1cccnc1N2 | – | inactive: -6.51%
66 | NC(=O)c1sc2nc(N3CCCCC3)c3c(c2c1N)CCCC3 | active: 1.26 µM | –

Row | SMILES | Potency | activity change, negative = inhibition
67 | O/N=C(\COc1ccccc1O)c1ccccc1 | inconclusive: 3.98 µM [falling, single point] | –
68 | CS(=O)(=O)Nc1cccc(-c2ccc3ncnc(NCCN4CCOCC4)c3c2)c1 | – | inconclusive: 19.7%
69 | O=C(OCC(=O)N1CCN(c2ccccc2)CC1)C1=COCCO1 | – | inconclusive: -7.52%
70 | CCOC(=O)C1C(=O)CC(C)(O)C(C(=O)OCC)C1c1cccc(OC(F)(F)C(F)F)c1 (stereo not given) | – | inconclusive: 10.4%
71 | Nc1ccc2c3c(cccc13)C(=O)NC2=O | inconclusive: 25.1 µM [rising, partial curve] | –
72 | CCOn1c(=O)c(=O)n(OCc2ccccc2)c2ccccc21 | – | inconclusive: -9.02% [at 7.6 µM]
73 | O=c1c(-c2ccccc2)n[nH]c2ccccc12 | – | inactive: 15.6%
74 | COc1ccc(-c2nc3cnc(N4CCN(C)CC4)nc3n(-c3ccc(OC)cc3)c2=O)cc1 | inconclusive: 5.01 µM [rising, partial curve] | –
75 | CCc1nnc(NC(=O)CSc2nc3c(c(=O)n2-c2ccccc2OC)SCC3)s1 | – | inconclusive: 25.6%
76 | N#CCSc1nnc2sc3ccccc3n12 | – | inconclusive: 26.6%
77 | COc1ccc(CNC(=O)C(c2cccs2)N(C(=O)c2csnn2)C2CC2)cc1 (stereo not given) | – | inconclusive: -17% [cytotoxic]
78 | O=C(O)CC(c1ccccc1)n1cccc1 (stereo not given) | inconclusive: 3.98 µM [rising, single point] | –
79 | CCOc1ccccc1OC(=O)c1ccco1 | inconclusive: 12.6 µM [rising, partial curve, poor fit] | –
80 | Cc1cc(C)c2c(N)c(C(=O)N3CCN(c4ncccn4)CC3)sc2n1 | active: 12.6 µM | –
81 | Cc1ccc(C2Nc3ccccc3-c3nc4ccccc4n32)o1 (stereo not given) | inconclusive: 15.8 µM [rising, single point] | –
82 | O=C(NCCC(=O)N1CCNC1=O)OCc1ccccc1 | – | inactive: 8.95%
83 | O=C(c1ccccc1OCc1ccccc1Br)N1CCN(c2ncccn2)CC1 | – | inactive: 0.326%
84 | COc1cccc(OCC(=O)Nc2c(C(=O)Nc3ccc(OC)cc3OC)oc3ccccc23)c1 | inconclusive: 20 µM [rising, single point] | –
85 | Cc1ccc(NC(=O)C2CCCN(S(=O)(=O)c3c(C)noc3C)C2)nc1 (stereo not given) | – | inactive: -4.57%
